Reference: patent publication US7425576B2, “Compounds as inhibitors of hepatitis C virus NS3 serine protease” (Schering Corporation, priority 2004, dated 2008)

Molecular target: Recombinant heterodimeric HCV NS3/NS4A protease (strain 1a) (Hepatitis C virus genotype 1a, UniProt P27958)
Test: Spectrophotometric assay for HCV protease inhibitory activity (chromogenic ester substrates)
Type: biochemical

Compound | pKi (Table 1, Ki* range class) | pKi (Table 3, Ki* range class) | also measured
C#CCCC(NC(=O)[C@@H]1[C@@H]2[C@H](CN1C(=O)[C@@H](NC(=O)N[C@H](COC(=O)NCC)C(C)(C)C)C1CCCCC1)C2(C)C)C(=O)C(=O)NCC=C (stereo partly shown) [Example 1086] | > 7.12 | – | pKi (Table 6, numeric Ki*): 8.10
CC(C)(C)[C@H](NC(=O)NC1(C(O)Cc2ccccc2)CCCCC1)C(=O)N1C[C@H]2[C@@H]([C@H]1C(=O)NC(CC1CC1)C(=O)C(N)=O)C2(C)C (stereo partly shown) [Example 1644] | – | > 7.12 | –
COC[C@@H](NC(=O)N[C@H](C(=O)N1C[C@H]2[C@@H]([C@H]1C(=O)NC(CCC(F)(F)F)C(=O)C(N)=O)C2(C)C)C1Cc2ccccc2C1)C(C)(C)C (stereo partly shown) [Example 1667] | – | > 7.12 | –
CC(C)(C)[C@H](NC(=O)N[C@H](COc1ccccc1)C(C)(C)C)C(=O)N1C[C@H]2[C@@H]([C@H]1C(=O)NC(CC1CC1)C(=O)C(N)=O)C2(C)C (stereo partly shown) [Example 1614] | – | 6.60 to 7.12 | –
CCCCC(NC(=O)[C@@H]1[C@@H]2[C@H](CN1C(=O)[C@@H](NC(=O)N[C@H](COC(C)(C)C)C(C)(C)C)C1(C)CCCCC1)C2(C)C)C(=O)C(N)=O (stereo partly shown) [Example 1679] | – | 6.60 to 7.12 | –
C=CCNC(=O)C(=O)C(CCC(F)(F)F)NC(=O)[C@@H]1[C@@H]2[C@H](CN1C(=O)[C@@H](NC(=O)N[C@H](COC)C(C)(C)C)C1Cc3ccccc3C1)C2(C)C (stereo partly shown) [Example 1406] | – | – | pKi (Table 2, Ki* range class): 6.60 to 7.12
C=CCNC(=O)C(=O)C(CCC)NC(=O)[C@@H]1[C@@H]2[C@H](CN1C(=O)[C@@H](NC(=O)N[C@H](COC(=O)NCC)C(C)(C)C)C1CCCCC1)C2(C)C (stereo partly shown) [Example 1058] | > 7.12 | – | –
C=CCNC(=O)C(=O)C(CCC)NC(=O)[C@@H]1[C@@H]2[C@H](CN1C(=O)[C@@H](NC(=O)N[C@H](COC(=O)NCC)C1CCCCC1)C1CCCCC1)C2(C)C (stereo partly shown) [Example 1100] | > 7.12 | – | –
CC(C)(CO)NC(=O)N[C@H](C(=O)N1C[C@H]2[C@@H]([C@H]1C(=O)NC(CC1CC1)C(=O)C(N)=O)C2(C)C)C(C)(C)C (stereo partly shown) [Example 1628] | – | > 7.12 | –
COC(=O)OC[C@@H](NC(=O)N[C@H](C(=O)N1C[C@H]2[C@@H]([C@H]1C(=O)NC(CC1CCC1)C(=O)C(N)=O)C2(C)C)C(C)(C)C)C(C)C (stereo partly shown) [Example 1409] | – | – | pKi (Table 2, Ki* range class): 6.60 to 7.12
CCCC(NC(=O)[C@@H]1[C@@H]2[C@H](CN1C(=O)[C@@H](NC(=O)N[C@H](COC(=O)NCC)C(C)(C)C)C1Cc3ccccc3C1)C2(C)C)C(=O)C(N)=O (stereo partly shown) [Example 1080] | > 7.12 | – | –
C=CCNC(=O)C(=O)C(CCCC)NC(=O)[C@@H]1[C@@H]2[C@H](CN1C(=O)[C@@H](NC(=O)N[C@H](COC(C)(C)C)C(C)(C)C)C1CCCCC1)C2(C)C (stereo partly shown) [Example 1636] | – | 6.60 to 7.12 | –
COC[C@@H](NC(=O)N[C@H](C(=O)N1C[C@H]2[C@@H]([C@H]1C(=O)NC(CC1CCC1)C(=O)C(N)=O)C2(C)C)C1Cc2ccccc2C1)C(C)(C)C (stereo partly shown) [Example 1631] | – | > 7.12 | pKi (Table 6, numeric Ki*): 7.82
CNC(=O)OC[C@@H](NC(=O)N[C@H](C(=O)N1C[C@H]2[C@@H]([C@H]1C(=O)NC(CC1CC1)C(=O)C(N)=O)C2(C)C)C(C)(C)C)C(C)(C)C (stereo partly shown) [Example 1060] | > 7.12 | – | –
CCNC(=O)OC[C@@H](NC(=O)N[C@H](C(=O)N1C[C@H]2[C@@H]([C@H]1C(=O)NC(CC1CC1)C(=O)C(N)=O)C2(C)C)C1Cc2ccccc2C1)C(C)(C)C (stereo partly shown) [Example 1024] | > 7.12 | – | pKi (Table 6, numeric Ki*): 8.14
CCCCC(NC(=O)[C@@H]1[C@@H]2[C@H](CN1C(=O)[C@@H](NC(=O)N[C@H](COC(=O)NC(C)C)C(C)(C)C)C1Cc3ccccc3C1)C2(C)C)C(=O)C(=O)NCCOC (stereo partly shown) [Example 1069] | 6.60 to 7.12 | – | –
CC(C)(C)OCC1(NC(=O)N[C@H](C(=O)N2C[C@H]3[C@@H]([C@H]2C(=O)NC(CC2CCC2)C(=O)C(N)=O)C3(C)C)C2(C)CCCCC2)CCCCC1 (stereo partly shown) [Example 1682] | – | 6.60 to 7.12 | –
CCC[C@@](C)(COC)NC(=O)N[C@H](C(=O)N1C[C@H]2[C@@H]([C@H]1C(=O)NC(CC1CC1)C(=O)C(N)=O)C2(C)C)C1(C)CCCCC1 (stereo partly shown) [Example 1674] | – | 6.60 to 7.12 | –
CCCC(NC(=O)[C@@H]1[C@@H]2[C@H](CN1C(=O)[C@@H](NC(=O)N[C@H](COC(=O)NCC)C(C)(C)C)C1Cc3ccccc3C1)C2(C)C)C(=O)C(=O)NCCOC (stereo partly shown) [Example 1062] | 6.60 to 7.12 | – | –

pKi: −log10 of the molar value.
